The results in this text go back to patent publication US20190336582A1 (published 2019).

To fix the notation:
T1: IL-10 receptor (IL-10R1 and IL-10R2 receptor chains) on mouse cells (mouse, UniProt Q61727 17-575; Q61190 20-349)
T1 sequence (looked up) 1: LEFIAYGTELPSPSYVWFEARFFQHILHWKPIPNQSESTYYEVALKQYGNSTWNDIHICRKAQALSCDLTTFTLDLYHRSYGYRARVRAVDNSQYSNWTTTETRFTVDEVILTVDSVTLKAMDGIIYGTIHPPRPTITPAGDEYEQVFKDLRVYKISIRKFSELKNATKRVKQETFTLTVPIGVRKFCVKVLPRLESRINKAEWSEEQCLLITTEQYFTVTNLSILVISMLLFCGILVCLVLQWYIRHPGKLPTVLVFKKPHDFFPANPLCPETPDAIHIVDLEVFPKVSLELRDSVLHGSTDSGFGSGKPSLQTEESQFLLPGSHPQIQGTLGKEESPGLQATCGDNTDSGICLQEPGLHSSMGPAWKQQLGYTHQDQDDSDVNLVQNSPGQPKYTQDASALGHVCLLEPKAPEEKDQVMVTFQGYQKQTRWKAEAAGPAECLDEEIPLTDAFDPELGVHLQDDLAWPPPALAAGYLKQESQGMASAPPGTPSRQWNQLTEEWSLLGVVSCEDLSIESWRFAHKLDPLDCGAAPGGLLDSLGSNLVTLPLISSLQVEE
T1 sequence (looked up) 2: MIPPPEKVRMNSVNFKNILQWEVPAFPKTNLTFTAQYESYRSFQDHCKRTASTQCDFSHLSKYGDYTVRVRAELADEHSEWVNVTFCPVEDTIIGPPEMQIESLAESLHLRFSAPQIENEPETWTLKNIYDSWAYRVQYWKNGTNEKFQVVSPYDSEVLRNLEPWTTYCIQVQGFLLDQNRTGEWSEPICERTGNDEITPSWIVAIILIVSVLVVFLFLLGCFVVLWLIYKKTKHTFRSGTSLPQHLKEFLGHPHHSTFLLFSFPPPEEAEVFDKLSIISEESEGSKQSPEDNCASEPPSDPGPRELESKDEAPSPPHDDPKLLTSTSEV

B1: (scIL-10:Fc), hinge truncation mutant 2 (Fc fusion)
chain: SPGQGTQSENSCTHFPGNLPNMLRDLRDAFSRVKTFFQMKDQLDNLLLKESLLEDFKGYLGCQALSEMIQFYLEEVMPQAENQDPDIKAHVNSLGENLKTLRLRLRRCHRFLPCENKSKAVEQVKNAFNKLQEKGIYKAMSEFDIFINYIEAYMTMKIRNGGSGGSPGQGTQSENSCTHFPGNLPNMLRDLRDAFSRVKTFFQMKDQLDNLLLKESLLEDFKGYLGCQALSEMIQFYLEEVMPQAENQDPDIKAHVNSLGENLKTLRLRLRRCHRFLPCENKSKAVEQVKNAFNKLQEKGIYKAMSEFDIFINYIEAYMTMKI[human IgG1 Fc and a few adjoining residues cut from this listing]
B2: (scIL-10:Fc), hinge truncation mutant 3 (Fc fusion)
chain: SPGQGTQSENSCTHFPGNLPNMLRDLRDAFSRVKTFFQMKDQLDNLLLKESLLEDFKGYLGCQALSEMIQFYLEEVMPQAENQDPDIKAHVNSLGENLKTLRLRLRRCHRFLPCENKSKAVEQVKNAFNKLQEKGIYKAMSEFDIFINYIEAYMTMKIRNGGSGGSPGQGTQSENSCTHFPGNLPNMLRDLRDAFSRVKTFFQMKDQLDNLLLKESLLEDFKGYLGCQALSEMIQFYLEEVMPQAENQDPDIKAHVNSLGENLKTLRLRLRRCHRFLPCENKSKAVEQVKNAFNKLQEKGIYKAMSEFDIFINYIEAYMTMKI[human IgG1 Fc and a few adjoining residues cut from this listing]
B3: D41F:linker:wtIL-10 (R1 mutant) (Fc fusion)
chain: SPGQGTQSENSCTHFPGNLPNMLRDLRDAFSRVKTFFQMKFQLDNLLLKESLLEDFKGYLGCQALSEMIQFYLEEVMPQAENQDPDIKAHVNSLGENLKTLRLRLRRCHRFLPCENKSKAVEQVKNAFNKLQEKGIYKAMSEFDIFINYIEAYMTMKIRNGGSGGGGSGGSPGQGTQSENSCTHFPGNLPNMLRDLRDAFSRVKTFFQMKDQLDNLLLKESLLEDFKGYLGCQALSEMIQFYLEEVMPQAENQDPDIKAHVNSLGENLKTLRLRLRRCHRFLPCENKSKAVEQVKNAFNKLQEKGIYKAMSEFDIFINYIEAYMTMKIRNGGGGSGGGGSRTVAAPSVFIFPPSDEQLKSGTASVVCLLNNFYPREAKVQWKVDNALQSGNSQESVTEQDSKDSTYSLSSTLTLSKADYEKHKVYACEVTHQGLSSPVTKSFNRGECGGGGSGGGGSGGGGSGGGGSASTKGPSVFPLAPSSKSTSGGTAALGCLVKDYFPEPVTVSWNSGALTSGVHTFPAVLQSSGLYSLSSVVTVPSSSLGTQTYICNVNHKPSNTKVDKRV[human IgG1 Fc cut from this listing]
B4: wtIL-10:linker:M22A (R2 mutant) (Fc fusion)
chain: SPGQGTQSENSCTHFPGNLPNMLRDLRDAFSRVKTFFQMKDQLDNLLLKESLLEDFKGYLGCQALSEMIQFYLEEVMPQAENQDPDIKAHVNSLGENLKTLRLRLRRCHRFLPCENKSKAVEQVKNAFNKLQEKGIYKAMSEFDIFINYIEAYMTMKIRNGGSGGGGSGGSPGQGTQSENSCTHFPGNLPNALRDLRDAFSRVKTFFQMKDQLDNLLLKESLLEDFKGYLGCQALSEMIQFYLEEVMPQAENQDPDIKAHVNSLGENLKTLRLRLRRCHRFLPCENKSKAVEQVKNAFNKLQEKGIYKAMSEFDIFINYIEAYMTMKIRNGGGGSGGGGSRTVAAPSVFIFPPSDEQLKSGTASVVCLLNNFYPREAKVQWKVDNALQSGNSQESVTEQDSKDSTYSLSSTLTLSKADYEKHKVYACEVTHQGLSSPVTKSFNRGECGGGGSGGGGSGGGGSGGGGSASTKGPSVFPLAPSSKSTSGGTAALGCLVKDYFPEPVTVSWNSGALTSGVHTFPAVLQSSGLYSLSSVVTVPSSSLGTQTYICNVNHKPSNTKVDKRV[human IgG1 Fc cut from this listing]
B5: M22A:linker:wtIL-10 (R2 mutant) (Fc fusion)
chain: SPGQGTQSENSCTHFPGNLPNALRDLRDAFSRVKTFFQMKDQLDNLLLKESLLEDFKGYLGCQALSEMIQFYLEEVMPQAENQDPDIKAHVNSLGENLKTLRLRLRRCHRFLPCENKSKAVEQVKNAFNKLQEKGIYKAMSEFDIFINYIEAYMTMKIRNGGSGGGGSGGSPGQGTQSENSCTHFPGNLPNMLRDLRDAFSRVKTFFQMKDQLDNLLLKESLLEDFKGYLGCQALSEMIQFYLEEVMPQAENQDPDIKAHVNSLGENLKTLRLRLRRCHRFLPCENKSKAVEQVKNAFNKLQEKGIYKAMSEFDIFINYIEAYMTMKIRNGGGGSGGGGSRTVAAPSVFIFPPSDEQLKSGTASVVCLLNNFYPREAKVQWKVDNALQSGNSQESVTEQDSKDSTYSLSSTLTLSKADYEKHKVYACEVTHQGLSSPVTKSFNRGECGGGGSGGGGSGGGGSGGGGSASTKGPSVFPLAPSSKSTSGGTAALGCLVKDYFPEPVTVSWNSGALTSGVHTFPAVLQSSGLYSLSSVVTVPSSSLGTQTYICNVNHKPSNTKVDKRV[human IgG1 Fc cut from this listing]
B6: M22A:linker:M22A (R2 mutant) (Fc fusion)
chain: SPGQGTQSENSCTHFPGNLPNALRDLRDAFSRVKTFFQMKDQLDNLLLKESLLEDFKGYLGCQALSEMIQFYLEEVMPQAENQDPDIKAHVNSLGENLKTLRLRLRRCHRFLPCENKSKAVEQVKNAFNKLQEKGIYKAMSEFDIFINYIEAYMTMKIRNGGSGGGGSGGSPGQGTQSENSCTHFPGNLPNALRDLRDAFSRVKTFFQMKDQLDNLLLKESLLEDFKGYLGCQALSEMIQFYLEEVMPQAENQDPDIKAHVNSLGENLKTLRLRLRRCHRFLPCENKSKAVEQVKNAFNKLQEKGIYKAMSEFDIFINYIEAYMTMKIRNGGGGSGGGGSRTVAAPSVFIFPPSDEQLKSGTASVVCLLNNFYPREAKVQWKVDNALQSGNSQESVTEQDSKDSTYSLSSTLTLSKADYEKHKVYACEVTHQGLSSPVTKSFNRGECGGGGSGGGGSGGGGSGGGGSASTKGPSVFPLAPSSKSTSGGTAALGCLVKDYFPEPVTVSWNSGALTSGVHTFPAVLQSSGLYSLSSVVTVPSSSLGTQTYICNVNHKPSNTKVDKRV[human IgG1 Fc cut from this listing]
B7: wtIL-10:linkerD41F (R1 mutant) (Fc fusion)
chain: SPGQGTQSENSCTHFPGNLPNMLRDLRDAFSRVKTFFQMKDQLDNLLLKESLLEDFKGYLGCQALSEMIQFYLEEVMPQAENQDPDIKAHVNSLGENLKTLRLRLRRCHRFLPCENKSKAVEQVKNAFNKLQEKGIYKAMSEFDIFINYIEAYMTMKIRNGGSGGGGSGGSPGQGTQSENSCTHFPGNLPNMLRDLRDAFSRVKTFFQMKFQLDNLLLKESLLEDFKGYLGCQALSEMIQFYLEEVMPQAENQDPDIKAHVNSLGENLKTLRLRLRRCHRFLPCENKSKAVEQVKNAFNKLQEKGIYKAMSEFDIFINYIEAYMTMKIRNGGGGSGGGGSRTVAAPSVFIFPPSDEQLKSGTASVVCLLNNFYPREAKVQWKVDNALQSGNSQESVTEQDSKDSTYSLSSTLTLSKADYEKHKVYACEVTHQGLSSPVTKSFNRGECGGGGSGGGGSGGGGSGGGGSASTKGPSVFPLAPSSKSTSGGTAALGCLVKDYFPEPVTVSWNSGALTSGVHTFPAVLQSSGLYSLSSVVTVPSSSLGTQTYICNVNHKPSNTKVDKRV[human IgG1 Fc cut from this listing]
B8: M22A:linker:D41F (R1 + R2 mutant), SEQ ID NO: 26 (Fc fusion)
chain: SPGQGTQSENSCTHFPGNLPNALRDLRDAFSRVKTFFQMKFQLDNLLLKESLLEDFKGYLGCQALSEMIQFYLEEVMPQAENQDPDIKAHVNSLGENLKTLRLRLRRCHRFLPCENKSKAVEQVKNAFNKLQEKGIYKAMSEFDIFINYIEAYMTMKIRNGGSGGGGSGGSPGQGTQSENSCTHFPGNLPNMLRDLRDAFSRVKTFFQMKDQLDNLLLKESLLEDFKGYLGCQALSEMIQFYLEEVMPQAENQDPDIKAHVNSLGENLKTLRLRLRRCHRFLPCENKSKAVEQVKNAFNKLQEKGIYKAMSEFDIFINYIEAYMTMKIRNGGGGSGGGGSRTVAAPSVFIFPPSDEQLKSGTASVVCLLNNFYPREAKVQWKVDNALQSGNSQESVTEQDSKDSTYSLSSTLTLSKADYEKHKVYACEVTHQGLSSPVTKSFNRGECGGGGSGGGGSGGGGSGGGGSASTKGPSVFPLAPSSKSTSGGTAALGCLVKDYFPEPVTVSWNSGALTSGVHTFPAVLQSSGLYSLSSVVTVPSSSLGTQTYICNVNHKPSNTKVDKRV[human IgG1 Fc cut from this listing]

The target in this test is T1, IL-10 receptor (IL-10R1 and IL-10R2 …). The test can be described thus: cell-based or functional assay.
As to B1, the “EC50, proliferation of mouse mast cell line MC/9” value (“EC50, proliferation” below) was found to be 864 pM.

Regarding B2, the “EC50, proliferation” value turned out to be 1010 pM.

For the molecule B3, the “EC50, proliferation” value amounted to 264 pM and the “IC50, inhibition of TNFα production in LPS-stimulated C57BL/6 mouse PBMCs (PBMC + LPS)” value (shortened to “IC50, inhibition of TNFα production”) stood at 0.12 pM.

Turning to B4, the “EC50, proliferation” value stood at 38 pM and the “IC50, inhibition of TNFα production” value is 0.045 pM.

As to B5, the “EC50, proliferation” value worked out at 47 pM and the “IC50, inhibition of TNFα production” value was 0.077 pM.

As to B6, the “EC50, proliferation” value came out at 541 pM and the “IC50, inhibition of TNFα production” value amounted to 0.73 pM.

Turning to B7, the “EC50, proliferation” value came out at 1370 pM and the “IC50, inhibition of TNFα production” value stood at 0.18 pM.

As for B8, the “EC50, proliferation” value is 987 pM and the “IC50, inhibition of TNFα production” value amounted to 2.1 pM.
